Measurements from paper PMC11995724, “Antibiotic target discovery by integrated phenotypic and activity-based profiling of electrophilic fragments” (Cell chemical biology, 2025).
Hit rate of the full screen: of about 3,200 compounds, about 75 (2%) showed an effect of 50% or more. This is one part of the list.

Each compound was assayed on T1, S. aureus MSSA476. Conditions: relative growth, OD600, TSB; 25 µM; inhibitor.
T1 construct: MSSA476
Parameters: species or system S. aureus MSSA476 (TSB) or V. cholerae SAD30 (LB); 384-well bacterial growth screen at 25 uM, OD600 relative to DMSO control

Row | SMILES | % of control remaining [%]
1 | CCN(Cc1ccc(OC)c(F)c1)C(=O)CCl [5-D09, 2-chloro-N-ethyl-N-[(3-fluoro-4-methoxyphenyl)methyl]acetamide] | 109.29
2 | Cc1ccccc1N1C(=O)CSC1=C(C#N)C(=O)N1CCCCC1 [8-B12, 2-[3-(2-methylphenyl)-4-oxo-1,3-thiazolidin-2-ylidene]-3-oxo-3-(piperidin-1-yl)propanenitrile] | 76.6805
3 | C=CC(=O)NC(Cn1cnc2ccccc21)c1ccc(F)cc1 (centres unmarked) [2-C11, N-[2-(1H-1,3-benzodiazol-1-yl)-1-(4-fluorophenyl)ethyl]prop-2-enamide] | 122.193
4 | CC(Cl)C(=O)N(C)Cc1ccccc1 (centres unmarked) [6-I13, N-benzyl-2-chloro-N-methylpropanamide] | 115.415
5 | CC(Cl)C(=O)N(CCC#N)c1ccccc1 (centres unmarked) [6-M18, 2-chloro-N-(2-cyanoethyl)-N-phenylpropanamide] | 89.8049
6 | CC(Cl)C(=O)NC1COCc2ccccc21 (centres unmarked) [6-B05, 2-chloro-N-(3,4-dihydro-1H-2-benzopyran-4-yl)propanamide] | 82.6341
7 | C=CC(=O)N1CCC(C(=O)NCC2COC3(CCCC3)O2)CC1 (centres unmarked) [3-A16, N-({1,4-dioxaspiro[4.4]nonan-2-yl}methyl)-1-(prop-2-enoyl)piperidine-4-carboxamide] | 117.37
8 | C=CC(=O)NCCC(=O)N1CCc2ncncc2C1 [2-C04, N-(3-oxo-3-{5H,6H,7H,8H-pyrido[4,3-d]pyrimidin-6-yl}propyl)prop-2-enamide] | 106.876
9 | COc1cc(OC)c(C(=O)CCl)c(OC)c1 [10-L04, 2-chloro-1-(2,4,6-trimethoxyphenyl)ethan-1-one] | 106.563
10 | C=CC(=O)N1CCC(C(=O)N2Cc3ccccc3C[C@H]2C(N)=O)CC1 [3-C19, (3S)-2-[1-(prop-2-enoyl)piperidine-4-carbonyl]-1,2,3,4-tetrahydroisoquinoline-3-carboxamide] | 110.753
11 | O=C(CCl)NC1COc2ncccc21 (centres unmarked) [7-F10, 2-chloro-N-{2H,3H-furo[2,3-b]pyridin-3-yl}acetamide] | 98.5871
12 | CC(Cl)C(=O)N1CCN(c2nc3ccccc3o2)C(C)C1 (centres unmarked) [7-K22, 1-[4-(1,3-benzoxazol-2-yl)-3-methylpiperazin-1-yl]-2-chloropropan-1-one] | 90.4239
13 | CC(Cl)C(=O)Nc1cc(Cl)ccc1Cl (centres unmarked) [6-A15, 2-chloro-N-(2,5-dichlorophenyl)propanamide] | 97.6585
14 | CCOc1ccc(S(=O)(=O)N2CCN(C(=O)CCl)CC2)cc1 [4-P15, 2-chloro-1-[4-(4-ethoxybenzenesulfonyl)piperazin-1-yl]ethan-1-one] | 109.004
15 | CC(Cl)C(=O)N1CCN(Cc2nnnn2-c2ccccc2)CC1 (centres unmarked) [7-N05, 2-chloro-1-{4-[(1-phenyl-1H-1,2,3,4-tetrazol-5-yl)methyl]piperazin-1-yl}propan-1-one] | 103.925
16 | CC(Cl)C(=O)N1CCCN(c2ccc(-c3ccccc3)nn2)CC1 (centres unmarked) [7-L15, 2-chloro-1-[4-(6-phenylpyridazin-3-yl)-1,4-diazepan-1-yl]propan-1-one] | 85.7143
17 | C=CC(=O)Nc1ccccc1-c1nnnn1C [1-M05, N-[2-(1-methyl-1H-1,2,3,4-tetrazol-5-yl)phenyl]prop-2-enamide] | 108.659
18 | N#CC(=Cc1c(C2CC2)nc2sccn12)C(=O)NC1CCCCC1 [9-H18, 2-cyano-N-cyclohexyl-3-{6-cyclopropylimidazo[2,1-b][1,3]thiazol-5-yl}prop-2-enamide] | 95.8801
19 | O=C(CCl)Cc1ccc(F)cc1Cl [10-E19, 1-chloro-3-(2-chloro-4-fluorophenyl)propan-2-one] | 114.687
20 | C=CC(=O)Nc1cc(OC)ccc1C(=O)N(C)OC [1-J14, N,4-dimethoxy-N-methyl-2-(prop-2-enamido)benzamide] | 111.824
21 | O=C(CCl)NCC(c1ccccc1)c1c[nH]c2ccccc12 (centres unmarked) [6-C08, 2-chloro-N-[2-(1H-indol-3-yl)-2-phenylethyl]acetamide] | 73.4146
22 | O=C(CCl)Nc1ccc(OCc2ccccc2)cc1 [6-K07, N-[4-(benzyloxy)phenyl]-2-chloroacetamide] | 98
23 | O=C(CCl)Nc1cc(-n2cnnn2)ccc1Cl [6-A05, 2-chloro-N-[2-chloro-5-(1H-1,2,3,4-tetrazol-1-yl)phenyl]acetamide] | 78.1951
24 | C=CC(=O)NCc1nc(C2CC2)oc1C [2-P13, N-[(2-cyclopropyl-5-methyl-1,3-oxazol-4-yl)methyl]prop-2-enamide] | 84.9434

Row | SMILES | % of control remaining [%]
25 | CCN(C(=O)CCl)C1CCCCC1 [5-D11, 2-chloro-N-cyclohexyl-N-ethylacetamide] | 111.111
26 | Cc1nnnn1CCNC(=O)C(C)Cl (centres unmarked) [7-A19, 2-chloro-N-[2-(5-methyl-1H-1,2,3,4-tetrazol-1-yl)ethyl]propanamide] | 106.122
27 | CC(Cl)C(=O)N1CCc2ncccc2C1 (centres unmarked) [7-I19, 2-chloro-1-(5,6,7,8-tetrahydro-1,6-naphthyridin-6-yl)propan-1-one] | 82.8885
28 | CC(Cl)C(=O)Nc1ccc([N+](=O)[O-])cc1 (centres unmarked) [4-I18, 2-chloro-N-(4-nitrophenyl)propanamide] | 122.344
29 | Cc1cccc(NC(=O)[C@@H]2CCCN2C(=O)CCl)n1 [5-C06, (2S)-1-(2-chloroacetyl)-N-(6-methylpyridin-2-yl)pyrrolidine-2-carboxamide] | 115.118
30 | C=CC(=O)N1CCC(C(=O)NCCO)CC1 [3-C18, N-(2-hydroxyethyl)-1-(prop-2-enoyl)piperidine-4-carboxamide] | 103.439
31 | CCOC(=O)c1ccc(NC(=O)CCl)cc1 [4-E17, ethyl 4-(2-chloroacetamido)benzoate] | 118.152
32 | C=CC(=O)Nc1cc(C)nn1-c1ccccc1F [2-C15, N-[1-(2-fluorophenyl)-3-methyl-1H-pyrazol-5-yl]prop-2-enamide] | 108.616
33 | COCCNC(=O)C(C#N)=Cc1c(F)cccc1Cl [8-O21, 3-(2-chloro-6-fluorophenyl)-2-cyano-N-(2-methoxyethyl)prop-2-enamide] | 108.216
34 | Cc1nc2cc(NC(=O)C(C#N)=Cc3ccco3)ccc2n1C [9-B18, 2-cyano-N-(1,2-dimethyl-1H-1,3-benzodiazol-5-yl)-3-(furan-2-yl)prop-2-enamide] | 98.8764
35 | CCSc1nnc(NC(=O)CCl)s1 [5-N22, 2-chloro-N-[5-(ethylsulfanyl)-1,3,4-thiadiazol-2-yl]acetamide] | 123.497
36 | Cl.O=C(CCl)N1CCN(CCOc2ccccc2)CC1 [4-H14, 2-chloro-1-[4-(2-phenoxyethyl)piperazin-1-yl]ethan-1-one hydrochloride] | 89.1853
37 | COc1cc(Cl)c(C)cc1NC(=O)C(C#N)=CC=Cc1ccccc1 [8-A21, N-(4-chloro-2-methoxy-5-methylphenyl)-2-cyano-5-phenylpenta-2,4-dienamide] | 102.905
38 | C=CC(=O)NCc1ccnc(N2CCOCC2)c1 [1-C09, N-{[2-(morpholin-4-yl)pyridin-4-yl]methyl}prop-2-enamide] | 107.253
39 | CC(Cl)C(=O)Nc1cc(C(C)(C)C)nn1-c1ccccc1 (centres unmarked) [4-H11, N-(3-tert-butyl-1-phenyl-1H-pyrazol-5-yl)-2-chloropropanamide] | 101.382
40 | COc1ccc(CCN2C(=O)C=CC2=O)cc1 [10-A05, 1-[2-(4-methoxyphenyl)ethyl]-2,5-dihydro-1H-pyrrole-2,5-dione] | 135.625
41 | C=CC(=O)NCc1ccc(N2CCCC(C(N)=O)C2)cc1 (centres unmarked) [1-P19, 1-{4-[(prop-2-enamido)methyl]phenyl}piperidine-3-carboxamide] | 109.714
42 | O=C(Nc1ccc(F)cc1)N1CCSSCC1 [10-D21, N-(4-fluorophenyl)-1,2,5-dithiazepane-5-carboxamide] | 105.313
43 | O=C(CCl)NC(c1ccc(F)c(Cl)c1)C(F)(F)F (centres unmarked) [7-D16, 2-chloro-N-[1-(3-chloro-4-fluorophenyl)-2,2,2-trifluoroethyl]acetamide] | 84.1444
44 | O=C(c1ccccc1)c1cc(Cl)ccc1N1C(=O)C=CC1=O [10-M16, 1-(2-benzoyl-4-chlorophenyl)-2,5-dihydro-1H-pyrrole-2,5-dione] | 128.125
45 | C=CC(=O)N1CCC(C(=O)Oc2ccc(NC(C)=O)cc2)CC1 [3-M16, 4-acetamidophenyl 1-(prop-2-enoyl)piperidine-4-carboxylate] | 96.8219
46 | COc1ccc([N+](=O)[O-])cc1N1C(=O)C=CC1=O [10-P13, 1-(2-methoxy-5-nitrophenyl)-2,5-dihydro-1H-pyrrole-2,5-dione] | 94.375
47 | C=CC(=O)N1CCN(Cc2cc(=O)n3ccsc3n2)CC1 [3-F22, 7-{[4-(prop-2-enoyl)piperazin-1-yl]methyl}-5H-[1,3]thiazolo[3,2-a]pyrimidin-5-one] | 101.698
